Results published in a collection of fitness landscapes (doi:10.1016/j.celrep.2020.107928).
Whole data set: some 81,000 sequences, median “one-hybrid fitness for binding parS DNA” near -0.17, cut for the highest 2% near 0.51. The list shows a part of the results.

B1: Caulobacter ParB omega fusion; a variant is named by its letters at X, in order, B8GW30 (parent)
chain: MESVVVGEPGMSEGRRGLGRGLSALLGEVDAAPAQAPGEQLGGSREAPIEILQRNPDQPRRTFREEDLEDLSNSIREKGVLQPILVRPSPDTAGEYQIVAGERAWRAAQRAGLKTVPIMVRELDDLAVLEIGIIENVQRADLNVLEEALSYKVLMEKFERTQENIAQTIGKSXSHVANXMRLLXLPDEVQSYLVSGELTAXHARAIAAAADPVALAKQIIEGGLSVRETEALARKAPNLSAGKSKGGRPPRVKDTDTQALESDLSSVLGLDVSIDHRGSTGTLTITYATLEQLDDLCNRLTRGI

Variants of: B1
Assay: one-hybrid fitness for binding parS DNA (scaled: cognate 1, non-cognate 0); higher = stronger binding
Conditions: with parS DNA site
Method in brief: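 Selection: bacterial one-hybrid in E. coli USO, HIS3 reporter with the site 19 bp from the promoter, 48 hours at 37°C on M9-minus-histidine plus 0.1 mM IPTG and 5 mM 3-AT. Libraries were Caulobacter ParB with four randomised specificity codons, sequenced on Illumina before and after selection. Fitness is the rescaled log change in variant-to-wild-type read ratio, anchored to the cognate and non-cognate sites.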

Variant | one-hybrid fitness for binding parS DNA
FDES | ≤ 0.2
QHDH | ≤ 0.2
LIDE | ≤ 0.2
CRMR | ≤ 0.2
NSMC | ≤ 0.2
WTST | ≤ 0.2
CTLV | ≤ 0.2
FVDS | ≤ 0.2
WAMN | ≤ 0.2
RIHE | ≤ 0.2
LVSL | ≤ 0.2
LAAW | ≤ 0.2
SGPK | ≤ 0.2
ERFG | ≤ 0.2
WTGW | ≤ 0.2
HMYR | ≤ 0.2
RKKF | 0.238
HCEM | ≤ 0.2
TPQY | ≤ 0.2
HDNC | ≤ 0.2
KMKS | ≤ 0.2
TWEG | ≤ 0.2
VATL | ≤ 0.2
ATNT | ≤ 0.2
LRNG | ≤ 0.2

Variant | one-hybrid fitness for binding parS DNA
SHYG | ≤ 0.2
HKSK | ≤ 0.2
GNMC | ≤ 0.2
PRCP | ≤ 0.2
CNRT | ≤ 0.2
LTPK | ≤ 0.2
STSN | ≤ 0.2
SEGG | ≤ 0.2
RMTN | 0.45
LSAR | ≤ 0.2
TIIC | ≤ 0.2
DLVS | ≤ 0.2
STKC | ≤ 0.2
HWAS | ≤ 0.2
NCAS | ≤ 0.2
RHCG | 0.95
SQSM | ≤ 0.2
WVIG | ≤ 0.2
TGSP | ≤ 0.2
YSNT | ≤ 0.2
ASYA | ≤ 0.2
HIWD | ≤ 0.2
TSFL | ≤ 0.2
HVSC | ≤ 0.2
YGNC | ≤ 0.2

Variant | one-hybrid fitness for binding parS DNA
VEYL | ≤ 0.2
LHLR | ≤ 0.2
RAKM | 0.448
HYTY | ≤ 0.2
GIKL | ≤ 0.2
VPFC | ≤ 0.2
EPKK | ≤ 0.2
HTVL | ≤ 0.2
WNSR | ≤ 0.2
WQMR | ≤ 0.2
ESYT | ≤ 0.2
KCPI | ≤ 0.2
ARGF | ≤ 0.2
QLPM | ≤ 0.2
HPCH | ≤ 0.2
MVTL | ≤ 0.2
LDKT | ≤ 0.2
LHIT | ≤ 0.2
LHME | ≤ 0.2
FDSR | ≤ 0.2
LVRG | ≤ 0.2
YTRV | ≤ 0.2
MGCS | ≤ 0.2
SPIT | ≤ 0.2
AHGY | ≤ 0.2

Variant | one-hybrid fitness for binding parS DNA
NNSE | ≤ 0.2
VTMF | ≤ 0.2
MPYE | ≤ 0.2
WIAG | ≤ 0.2
LSCS | ≤ 0.2
MRQC | ≤ 0.2
LTTV | ≤ 0.2
PDIG | ≤ 0.2
MPQW | ≤ 0.2
KINY | ≤ 0.2
GSCT | ≤ 0.2
IQCG | ≤ 0.2
PIKR | ≤ 0.2
ATSC | ≤ 0.2
QKLI | ≤ 0.2
GTPA | ≤ 0.2
RSHL | ≤ 0.2
GYWF | ≤ 0.2
TLSM | ≤ 0.2
QGQV | ≤ 0.2
ANWD | ≤ 0.2
RINP | ≤ 0.2
TTHL | ≤ 0.2
